# Experimental data as given in the supplement of paper PMC8728848.
# The list shows a part of the results.
# B1: SP16664B-bot-474-25-474 (Bacteroides ovatus) (protein)
# chain: CEEDIEIGNKIDESSYLASTQLSGLLLDENTNKNSSVIELRNNEYSTNVVFRLSKLPQKGVDVQIAVEESYAAIYNTIHETDFEVFPAANVKIANNGTFVLAPDDKVTPSVKVTLTAFDGMEEDKTYIVPLTVTSSTEGVTFTETSKHMVLLVQDYRNKPNTNKGEDAVQTVLYFEVNDTNPLNALEFLTESGKYFFDHIVLFAANINWDPEKQRVYLANNENVQFLLDNNDKYLQPLRKAGMKIIISILGNHDEAGVAQLSDMGAREFARELAAYCRAYNLDGVAFDDEYSNSPDLSNPWLASPSAYAGSRLMYECKAVMPEKIVSLYNLGNMYSSSLQVIDGIEPGQYCDYAVADYGGAAGPGTGMTLKQCAGMSIELRRGSGNSSESTARSRKEAGYGYYMFFALDPSLYGSQVYRCQSVCKGLYDETLVYPSYYYKKNSTEREAIN
# Tests used:
# Assay in all cases: glycan array binding signal (z-score within array); higher = stronger binding
# Conditions in all cases: glycan notation: IUPAC condensed, linker removed
# [1] = biological target: Gal(b1-4)GlcNAc(b1-3)Gal(b1-4)GlcNAc(b1-3)[Gal(b1-4)GlcNAc(b1-3)Gal(b1-4)GlcNAc(b1-6)]GalNAc
# In short: (§1)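 Columns mapping to the same glycan were averaged after glycan names were converted to IUPAC-condensed notation. The data come from 3228 arrays in the Consortium for Functional Glycomics database, limited to those with an available protein sequence. Binding is reported as a within-array Z-score averaged across arrays of one protein sequence and across linkers.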
# [2] = biological target: Gal(b1-4)GlcNAc(b1-3)Gal(b1-4)GlcNAc(b1-6)[Gal(b1-3)]GalNAc
# In short: as §1
# [3] = biological target: Gal(b1-4)GlcNAc(b1-3)Gal(b1-4)[Fuc(a1-3)]GlcNAc(b1-3)Gal(b1-4)[Fuc(a1-3)]GlcNAc
# In short: as §1
# [4] = biological target: Gal(b1-4)GlcNAc(b1-3)GalNAc
# In short: as §1
# [5] = biological target: Gal(b1-4)GlcNAc(b1-3)[Fuc(a1-3)GlcNAc(b1-6)]Gal(b1-4)Glc
# In short: as §1
# [6] = biological target: Gal(b1-4)GlcNAc(b1-3)[Gal(b1-4)GlcNAc(b1-6)]Gal(b1-4)GlcNAc
# In short: as §1
# [7] = biological target: Gal(b1-4)GlcNAc(b1-3)[GlcNAc(b1-6)]Gal(b1-4)GlcNAc
# In short: as §1
# [8] = biological target: Gal(b1-4)GlcNAc(b1-6)Gal(b1-4)GlcNAc
# In short: as §1
# [9] = biological target: Gal(b1-4)GlcNAc(b1-6)GalNAc
# In short: as §1
# [10] = biological target: Gal(b1-4)GlcNAc(b1-6)[Gal(b1-3)]GalNAc
# In short: as §1
# [11] = biological target: Gal(b1-4)GlcNAc(b1-6)[Gal(b1-4)GlcNAc(b1-3)]GalNAc
# In short: as §1
# [12] = biological target: Gal(b1-4)GlcNAc6P
# In short: as §1
# [13] = biological target: Gal(b1-6)Gal
# In short: as §1
# [14] = biological target: Gal3S(b1-3)GalNAc
# In short: as §1
# [15] = biological target: Gal3S(b1-3)GlcNAc
# In short: as §1
# [16] = biological target: Gal3S(b1-3)[Fuc(a1-4)]GlcNAc
# In short: as §1
# [17] = biological target: Gal3S(b1-4)Glc
# In short: as §1
# [18] = biological target: Gal3S(b1-4)Glc6S
# In short: as §1
# [19] = biological target: Gal3S(b1-4)GlcNAc
# In short: as §1
# [20] = biological target: Gal3S(b1-4)[Fuc(a1-3)]Glc6S
# In short: as §1
# [21] = biological target: Gal3S(b1-4)[Fuc(a1-3)]GlcNAc
# In short: as §1
# [22] = biological target: Gal3S(b1-4)[Fuc(a1-3)]GlcNAc6S
# In short: as §1
# [23] = biological target: Gal3S4S(b1-4)GlcNAc
# In short: as §1
# [24] = biological target: Gal3S6S(b1-4)GlcNAc
# In short: as §1
# [25] = biological target: Gal3S6S(b1-4)GlcNAc6S
# In short: as §1
# [26] = biological target: Gal4S(b1-4)GlcNAc
# In short: as §1
# [27] = biological target: Gal4S6S(b1-4)GlcNAc
# In short: as §1
# [28] = biological target: Gal6P(b1-4)GlcNAc
# In short: as §1
# [29] = biological target: Gal6S(b1-3)GlcNAc
# In short: as §1
# [30] = biological target: Gal6S(b1-3)GlcNAc6S
# In short: as §1
# [31] = biological target: Gal6S(b1-4)Glc
# In short: as §1
# [32] = biological target: Gal6S(b1-4)Glc6S
# In short: as §1
# [33] = biological target: Gal6S(b1-4)GlcNAc
# In short: as §1
# [34] = biological target: Gal6S(b1-4)GlcNAc6S
# In short: as §1
# [35] = biological target: GalNAc(a1-3)Gal
# In short: as §1
# [36] = biological target: GalNAc(a1-3)GalNAc
# In short: as §1
# [37] = biological target: GalNAc(a1-3)GalNAc(b1-3)Gal(a1-4)Gal(b1-4)Glc
# In short: as §1
# [38] = biological target: GalNAc(a1-3)GalNAc(b1-3)Gal(a1-4)Gal(b1-4)GlcNAc
# In short: as §1
# [39] = biological target: GalNAc(b1-3)Gal
# In short: as §1
# [40] = biological target: GalNAc(b1-3)Gal(a1-4)Gal(b1-4)GlcNAc
# In short: as §1
# [41] = biological target: GalNAc(b1-3)Gal(a1-4)Gal(b1-4)GlcNAc(b1-3)Gal(b1-4)Glc
# In short: as §1
# [42] = biological target: GalNAc(b1-3)Gal(a1-6)Gal(b1-4)Glc
# In short: as §1
# [43] = biological target: GalNAc(b1-3)GalNAc
# In short: as §1
# [44] = biological target: GalNAc(b1-3)GlcNAc
# In short: as §1
# [45] = biological target: GalNAc(b1-4)Gal(b1-4)Glc
# In short: as §1
# [46] = biological target: GalNAc(b1-4)GlcNAc
# In short: as §1
# [47] = biological target: GalNAc(b1-4)GlcNAc(b1-2)Man
# In short: as §1
# [48] = biological target: GalNAc(b1-4)GlcNAc(b1-2)Man(a1-3)[GalNAc(b1-4)GlcNAc(b1-2)Man(a1-6)]Man(b1-4)GlcNAc(b1-4)GlcNAc
# In short: as §1
# [49] = biological target: GalNAc(b1-4)GlcNAc(b1-3)GalNAc(b1-4)GlcNAc
# In short: as §1
# [50] = biological target: GalNAc(b1-4)GlcNAc6S
# In short: as §1
# [51] = biological target: GalNAc(b1-6)GalNAc
# In short: as §1
# [52] = biological target: GalNAc3S(b1-4)GlcNAc
# In short: as §1
# [53] = biological target: GalNAc3S(b1-4)GlcNAc3S
# In short: as §1
# [54] = biological target: GalNAc3S(b1-4)[Fuc(a1-3)]GlcNAc
# In short: as §1
# [55] = biological target: GalNAc4S6S(b1-4)GlcNAc
# In short: as §1
# [56] = biological target: GalNAc6S(b1-4)GlcNAc
# In short: as §1
# [57] = biological target: Glc(a1-4)Glc
# In short: as §1
# [58] = biological target: Glc(a1-4)Glc(a1-4)Glc(a1-4)Glc
# In short: as §1
# [59] = biological target: Glc(a1-6)Glc(a1-6)Glc
# In short: as §1
# [60] = biological target: Glc(a1-6)Glc(a1-6)Glc(a1-6)Glc
# In short: as §1
# [61] = biological target: Glc(b1-4)Glc
# In short: as §1
# [62] = biological target: Glc(b1-6)Glc
# In short: as §1
# [63] = biological target: GlcA(b1-3)Gal
# In short: as §1
# [64] = biological target: GlcA(b1-3)GlcNAc
# In short: as §1
# [65] = biological target: GlcA(b1-6)Gal
# In short: as §1
# [66] = biological target: GlcA3S(b1-3)Gal(b1-4)GlcNAc(b1-2)Man
# In short: as §1
# [67] = biological target: GlcA3S(b1-3)Gal(b1-4)GlcNAc(b1-3)Gal(b1-4)Glc
# In short: as §1
# [68] = biological target: GlcNAc(a1-3)Gal(b1-4)GlcNAc
# In short: as §1
# [69] = biological target: GlcNAc(a1-4)Gal(b1-3)GlcNAc
# In short: as §1
# [70] = biological target: GlcNAc(a1-4)Gal(b1-4)GalNAc
# In short: as §1
# [71] = biological target: GlcNAc(a1-4)Gal(b1-4)GlcNAc
# In short: as §1
# [72] = biological target: GlcNAc(a1-4)Gal(b1-4)GlcNAc(b1-3)Gal(b1-4)Glc
# In short: as §1
# [73] = biological target: GlcNAc(a1-4)Gal(b1-4)GlcNAc(b1-3)Gal(b1-4)GlcNAc
# In short: as §1
# [74] = biological target: GlcNAc(a1-4)Gal(b1-4)GlcNAc(b1-3)Gal(b1-4)GlcNAc(b1-3)Gal(b1-4)GlcNAc
# In short: as §1
# [75] = biological target: GlcNAc(a1-4)Gal(b1-4)GlcNAc(b1-3)Gal(b1-4)[Fuc(a1-3)]GlcNAc(b1-3)Gal(b1-4)[Fuc(a1-3)]GlcNAc
# In short: as §1
binder,measurement,setting,value
B1,glycan array binding signal (z-score),[1],1.49
same,glycan array binding signal (z-score),[2],0.334
same,glycan array binding signal (z-score),[3],-0.415
same,glycan array binding signal (z-score),[4],-0.041
same,glycan array binding signal (z-score),[5],-0.168
same,glycan array binding signal (z-score),[6],0.225
same,glycan array binding signal (z-score),[7],0.038
same,glycan array binding signal (z-score),[8],0.107
same,glycan array binding signal (z-score),[9],0.318
same,glycan array binding signal (z-score),[10],-0.125
same,glycan array binding signal (z-score),[11],-0.108
same,glycan array binding signal (z-score),[12],-0.423
same,glycan array binding signal (z-score),[13],-0.141
same,glycan array binding signal (z-score),[14],0.095
same,glycan array binding signal (z-score),[15],0.167
same,glycan array binding signal (z-score),[16],-0.009
same,glycan array binding signal (z-score),[17],0.626
same,glycan array binding signal (z-score),[18],0.344
same,glycan array binding signal (z-score),[19],-0.393
same,glycan array binding signal (z-score),[20],-0.231
same,glycan array binding signal (z-score),[21],0.068
same,glycan array binding signal (z-score),[22],0.545
same,glycan array binding signal (z-score),[23],0.303
same,glycan array binding signal (z-score),[24],0.516
same,glycan array binding signal (z-score),[25],-0.535
same,glycan array binding signal (z-score),[26],-0.032
same,glycan array binding signal (z-score),[27],-0.008
same,glycan array binding signal (z-score),[28],0.641
same,glycan array binding signal (z-score),[29],0.118
same,glycan array binding signal (z-score),[30],0.522
same,glycan array binding signal (z-score),[31],-0.453
same,glycan array binding signal (z-score),[32],0.797
same,glycan array binding signal (z-score),[33],-0.557
same,glycan array binding signal (z-score),[34],-0.289
same,glycan array binding signal (z-score),[35],-0.082
same,glycan array binding signal (z-score),[36],-0.365
same,glycan array binding signal (z-score),[37],-0.271
same,glycan array binding signal (z-score),[38],0.035
same,glycan array binding signal (z-score),[39],0.373
same,glycan array binding signal (z-score),[40],-0.347
same,glycan array binding signal (z-score),[41],0.947
same,glycan array binding signal (z-score),[42],-0.265
same,glycan array binding signal (z-score),[43],-0.311
same,glycan array binding signal (z-score),[44],-0.011
same,glycan array binding signal (z-score),[45],0.293
same,glycan array binding signal (z-score),[46],-0.424
same,glycan array binding signal (z-score),[47],-0.234
same,glycan array binding signal (z-score),[48],0.818
same,glycan array binding signal (z-score),[49],-0.437
same,glycan array binding signal (z-score),[50],-0.249
same,glycan array binding signal (z-score),[51],-0.071
same,glycan array binding signal (z-score),[52],-0.167
same,glycan array binding signal (z-score),[53],-0.554
same,glycan array binding signal (z-score),[54],-0.102
same,glycan array binding signal (z-score),[55],-0.156
same,glycan array binding signal (z-score),[56],-0.167
same,glycan array binding signal (z-score),[57],-0.119
same,glycan array binding signal (z-score),[58],0.723
same,glycan array binding signal (z-score),[59],-0.366
same,glycan array binding signal (z-score),[60],0.206
same,glycan array binding signal (z-score),[61],0.781
same,glycan array binding signal (z-score),[62],-0.432
same,glycan array binding signal (z-score),[63],-0.073
same,glycan array binding signal (z-score),[64],0.148
same,glycan array binding signal (z-score),[65],-0.616
same,glycan array binding signal (z-score),[66],-0.295
same,glycan array binding signal (z-score),[67],0.34
same,glycan array binding signal (z-score),[68],-0.321
same,glycan array binding signal (z-score),[69],-0.21
same,glycan array binding signal (z-score),[70],0.293
same,glycan array binding signal (z-score),[71],-0.527
same,glycan array binding signal (z-score),[72],-0.223
same,glycan array binding signal (z-score),[73],0.233
same,glycan array binding signal (z-score),[74],-0.159
same,glycan array binding signal (z-score),[75],4.58
